The values below come from publication PMC6919601, “Identification of Plasmodium dipeptidyl aminopeptidase allosteric inhibitors by high throughput screening” (PLoS ONE, 2019).

Among all 110,000 compounds or so, about 230 (0.21%) showed an effect of 50% or more. The list shows a part of the results.
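Also: 30 min substrate incubation versus DMSO and 10 µM JCP410 controls.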

The target of this experiment is DPAP1 (Plasmodium falciparum, UniProt Q8IIJ9). Put plainly: primary screen, percent inhibition; read by cleavage of a fluorogenic dipeptide substrate; higher = more effect of the substance. Further details: species or system P. falciparum D10 trophozoite lysates; single well.
Chain of DPAP1 (Q8IIJ9 whole entry, looked up): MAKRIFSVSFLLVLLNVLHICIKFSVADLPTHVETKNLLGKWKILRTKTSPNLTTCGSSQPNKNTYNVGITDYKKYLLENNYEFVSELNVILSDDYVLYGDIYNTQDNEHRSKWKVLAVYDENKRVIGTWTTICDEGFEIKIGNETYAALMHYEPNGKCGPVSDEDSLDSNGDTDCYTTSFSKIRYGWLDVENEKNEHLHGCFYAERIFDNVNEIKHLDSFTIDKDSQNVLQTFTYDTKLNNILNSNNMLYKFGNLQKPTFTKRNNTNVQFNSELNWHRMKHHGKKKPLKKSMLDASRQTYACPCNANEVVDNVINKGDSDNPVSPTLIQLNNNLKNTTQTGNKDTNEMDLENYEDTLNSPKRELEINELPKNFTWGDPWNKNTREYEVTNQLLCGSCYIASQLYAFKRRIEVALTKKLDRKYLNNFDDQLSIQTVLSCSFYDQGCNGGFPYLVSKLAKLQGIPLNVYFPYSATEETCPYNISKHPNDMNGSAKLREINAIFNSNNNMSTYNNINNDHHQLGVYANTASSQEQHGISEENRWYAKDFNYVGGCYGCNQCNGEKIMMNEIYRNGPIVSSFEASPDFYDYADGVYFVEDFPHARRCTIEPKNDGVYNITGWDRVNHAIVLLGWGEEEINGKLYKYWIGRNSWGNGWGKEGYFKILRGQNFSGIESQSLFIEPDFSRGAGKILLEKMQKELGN
`CCCOc1ccc(C2c3c(oc4cc(C)c(C)cc4c3=O)C(=O)N2CCCN(C)C)cc1` (stereo not drawn): the “% Inhibition @ 10 uM” value came to 2.31%.

Consider `CN(C)S(=O)(=O)c1ccc(C(=O)OCCCNC2=NS(=O)(=O)c3ccccc32)cc1`, for which the “% Inhibition @ 10 uM” value is -1.82%.

Turning to `CCCCSc1ncnc2sc3c(c12)CCCC3`, the “% Inhibition @ 10 uM” value is on record as 3.95%.

With `O=C(/C=C\Nc1ccc2c(c1)OCO2)c1ccc(F)cc1`, the “% Inhibition @ 10 uM” value is on record as -0.864%.

Turning to `CC1CN(C2CCN(CCc3ccccc3)CC2)CC(C)O1` (stereo not drawn), the “% Inhibition @ 10 uM” value is 1.43%.

Regarding `Clc1ccccc1OCc1nn2c(-c3ccccc3)nnc2s1`, the “% Inhibition @ 10 uM” value worked out at 4.96%.

Turning to `COc1ccc(C2C3=C(O)CCCC3=NC(C)=C2C(=O)Nc2c(F)cccc2F)c(OC)c1` (stereo not drawn), the “% Inhibition @ 10 uM” value is given as -0.105%.

Regarding `CCOC(=O)c1sc(C)c2c(O)nc(-c3ccccc3)nc12`, the “% Inhibition @ 10 uM” value was -1.47%.

Regarding `Cc1ccc(S(=O)(=O)N(CC(=O)Nc2cccnc2)c2cccc(Cl)c2C)cc1`, the “% Inhibition @ 10 uM” value is recorded as -7.9%.

Take `COc1ccc(-c2cc(-c3ccc(OC)cc3)c(C#N)c(SCC(=O)c3ccc(Cl)cc3)n2)cc1`: the “% Inhibition @ 10 uM” value turned out to be 3.01%.

For the compound `Cc1ccc(-c2nccnn2)cc1`, the “% Inhibition @ 10 uM” value was -4.75%.

As to `CCOC(=O)c1cnc2cc(C)nn2c1-c1ccccc1`, the “% Inhibition @ 10 uM” value came to 1.52%.

Take `Cc1cc(OCCN2CCOCC2)ccc1C(C)C`: the “% Inhibition @ 10 uM” value came to 1.41%.

As for `CC(C)C[C@H](NC(=O)N1CCN(CC(=O)N2CCCC2)CC1)C(=O)NCC#N`, the “% Inhibition @ 10 uM” value is -6.98%.

Regarding `O=C(CCCn1c(=O)c2cccn2c2cccnc21)NC1CCCc2ccccc21` (stereo not drawn), the “% Inhibition @ 10 uM” value is given as -5.74%.

`CCOc1ccc(CCNC(=O)CN(C)S(=O)(=O)c2cccc3nsnc23)cc1OCC`: the “% Inhibition @ 10 uM” value was determined as 2%.

`Cc1ccc2ccc(C)[n+](CCCS(=O)(=O)O)c2c1`: the “% Inhibition @ 10 uM” value was -5.63%.

As for `CCOc1ccc(/C=C2N=C(/C=C/c3ccccc3)OC/2=O)cc1`, the “% Inhibition @ 10 uM” value stood at 1.28%.

`CCOC(=O)c1c(NC(=O)Nc2nnc(N(C)C3CCCCC3)s2)sc2c1CCCC2`: the “% Inhibition @ 10 uM” value is -4.68%.

In the case of `Cc1ccc(C)c(NC(=O)CSC2=C(C#N)C(c3ccccc3)CC(=O)N2)c1` (stereo not drawn), the “% Inhibition @ 10 uM” value is recorded as -3.1%.

On to `O=C(NC1CC1)c1ccc(CSCc2ccc(Cl)cc2)o1`, for which the “% Inhibition @ 10 uM” value is -1.34%.

In the case of `Cc1oc(-c2ccc(C(=O)NCc3ccc4c(c3)OCO4)cc2)nc1CSc1ccccc1`, the “% Inhibition @ 10 uM” value is 2.32%.

As for `COc1ccc(C2=NOC(C(=O)N(C)C3CCCCC3)C2)cc1` (stereo not drawn), the “% Inhibition @ 10 uM” value is 4.74%.

Take `Cc1noc(C)c1C(=O)NC(CO)Cc1ccccc1` (stereo not drawn): the “% Inhibition @ 10 uM” value is reported as 6.17%.

For `COc1cccc2cc(C(C)=O)oc12`, the “% Inhibition @ 10 uM” value was found to be 6.99%.

Turning to `Cc1cc2cc(CNC(=S)NCCc3ccccc3)ccc2n1C`, the “% Inhibition @ 10 uM” value is listed as -5.58%.

Turning to `COCc1cc(C)n(CC(=O)Nc2cccc(C(F)(F)F)c2)c(=O)c1C#N`, the “% Inhibition @ 10 uM” value was -0.736%.

Consider `CC(C)(C)c1cc(C(=O)Nc2ccc(C(=O)O)cc2)cc(C(C)(C)C)c1`, for which the “% Inhibition @ 10 uM” value is -5.35%.

As for `CCC(C)c1ccc(S(=O)(=O)CCc2ccncc2)cc1` (stereo not drawn), the “% Inhibition @ 10 uM” value is given as -2.62%.

For `COc1ccc(C(c2c(C)nn(C(N)=S)c2O)C(C#N)C#N)cc1` (stereo not drawn), the “% Inhibition @ 10 uM” value is reported as 2.17%.

Take `COc1ccc(C2CC(C(F)(F)F)n3ncc(C(=O)Nc4ccc(F)cc4F)c3N2)cc1OC` (stereo not drawn): the “% Inhibition @ 10 uM” value was -2.58%.

For `CC(C)Nc1nc(NCCO)nc(N2CCOCC2)n1`, the “% Inhibition @ 10 uM” value was 4.86%.

In the case of `Clc1ccc(-c2noc3ncnc(N(CCCN4CCOCC4)Cc4ccco4)c23)cc1`, the “% Inhibition @ 10 uM” value is -2.41%.

With `CCc1ccc(CNC(=O)CCn2ccc3cc(S(=O)(=O)N4CCCC4)ccc32)cc1`, the “% Inhibition @ 10 uM” value is given as -3.43%.

For `COc1cc2ccccc2cc1C(=O)Nc1nc(-c2cc3ccccc3oc2=O)cs1`, the “% Inhibition @ 10 uM” value stood at 1.39%.

Turning to `CCCCC12CN3CCN(CC(C3)C1O)C2` (stereo not drawn), the “% Inhibition @ 10 uM” value was -2.22%.

On to `Cc1cc(C)c(C(=O)c2ccc(C(=O)N3CCCCC3)cc2)c(C)c1`, for which the “% Inhibition @ 10 uM” value is -5.94%.

In the case of `COc1ccc(OC)c(C2=NOC(C(=O)N(C)C3CCCCC3)C2)c1` (stereo not drawn), the “% Inhibition @ 10 uM” value is reported as -0.431%.

For `COc1ccccc1CNC(=O)CN(c1cccc(F)c1)S(C)(=O)=O`, the “% Inhibition @ 10 uM” value is listed as -10.9%.

As to `C#CC1(C)CCC2C(O1)c1ccccc1OC2(C)C` (stereo not drawn), the “% Inhibition @ 10 uM” value was -1.77%.

For the compound `Brc1ccc(CN2CCN(c3ccccn3)CC2)cc1`, the “% Inhibition @ 10 uM” value was -5.41%.

Regarding `CC1(C)CC2=NC3=C(C(=O)c4ccccc43)C(c3cccc(O)c3)C2=C(O)C1` (stereo not drawn), the “% Inhibition @ 10 uM” value is -4.68%.

Consider `COc1ccc(CN2CC=C(Cc3ccccc3)CC2)cc1`, for which the “% Inhibition @ 10 uM” value is 2.23%.

Turning to `O=C1c2ccccc2C(=O)c2cc(S(=O)(=O)NC3CCCCC3)ccc21`, the “% Inhibition @ 10 uM” value was found to be 25.4%.

Take `C=CCN1C(=O)N/C(=C/c2ccc(Sc3ccccc3)cc2)C1=O`: the “% Inhibition @ 10 uM” value is -1.6%.

Regarding `CC(C)Cc1ccc2c(N)c(C(=O)Nc3ccccc3)sc2n1`, the “% Inhibition @ 10 uM” value was -1.98%.

With `Cc1ccc2oc(=O)c3cc(C(=O)NCCC(C)C)sc3c2c1`, the “% Inhibition @ 10 uM” value came out at 0.809%.

Regarding `CCN(Cc1ccccc1)C(=O)C1CCC(CNS(=O)(=O)c2cccc3nsnc23)CC1` (stereo not drawn), the “% Inhibition @ 10 uM” value is 2.93%.

As for `CNCC(O)CNC(C)(C)C` (stereo not drawn), the “% Inhibition @ 10 uM” value was -5.5%.

On to `CCc1c(C)sc(NC(=O)c2cnccn2)c1C(N)=O`, for which the “% Inhibition @ 10 uM” value is -0.519%.

Consider `Cc1ccc(-c2nnc(Cl)c3ccccc23)cc1S(=O)(=O)NC1CC(C)(C)NC(C)(C)C1`, for which the “% Inhibition @ 10 uM” value worked out at 5.19%.

With `CC1CN(C(=O)C(C)NS(=O)(=O)c2cccc(Cl)c2)CC(C)O1` (stereo not drawn), the “% Inhibition @ 10 uM” value is on record as 1.92%.

With `CCOC(=N)c1nc2c(c(=O)n(C)c(=O)n2C)n1Cc1ccccc1Cl`, the “% Inhibition @ 10 uM” value worked out at 3.42%.

As to `COc1ccccc1-n1cc(-c2ccccc2)nc1S`, the “% Inhibition @ 10 uM” value is given as 58.6%.

Take `Cc1ccccc1OCC1=NN2C(=N)/C(=C\c3coc4ccccc4c3=O)C(=O)N=C2S1`: the “% Inhibition @ 10 uM” value is given as -0.495%.

On to `Cc1ccccc1C(=O)Nc1nnc(S(=O)(=O)N(C)Cc2ccco2)s1`, for which the “% Inhibition @ 10 uM” value is -5.99%.

`COCc1cc(C)nc(SCC(=O)Nc2cccc(C(F)(F)F)c2)c1C#N`: the “% Inhibition @ 10 uM” value was -4.75%.

For the compound `COc1ccc(NC(=O)c2c(NC(=O)Cc3ccccc3)sc3c2CCC3)cc1`, the “% Inhibition @ 10 uM” value worked out at 1.83%.

Consider `NS(=O)(=O)c1ccc(CCNC(=O)CCCN2C(=O)C(c3ccccc3)Oc3cccnc32)cc1` (stereo not drawn), for which the “% Inhibition @ 10 uM” value is -5.37%.

On to `Nc1c(C(=O)Nc2ccccc2F)sc2nc3c(cc12)CCCC3`, for which the “% Inhibition @ 10 uM” value is 0.235%.

As for `COc1cccc(NC(=O)CN(c2ccccc2OC)S(=O)(=O)c2ccccc2)c1`, the “% Inhibition @ 10 uM” value turned out to be 0.324%.

`COC(=O)c1c(C)oc(C)c(C(=O)OC)c1=O`: the “% Inhibition @ 10 uM” value is 1.91%.

On to `Cc1oc(-c2cccc(Cl)c2)nc1CN1CCCC(C(=O)NC(C)c2ccccc2)C1` (stereo not drawn), for which the “% Inhibition @ 10 uM” value was -1.05%.
